Consider one substance from US20220017583A1.

In the test the target is amyloid β (1-42) (UniProt P05067). Put plainly: trapping on beads, eluate by MALDI-TOF MS; amount of antigen needed for detection.

Certain results were filed several times, with different values. Only these are listed. The source may hold further records. The records of an entry read as repeated measurements (runs, samples, wells or individuals).

Chain of UniProt P05067 (P05067 672-713 limits assumed): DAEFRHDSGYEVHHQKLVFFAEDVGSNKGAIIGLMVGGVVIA

For 6E10 IgG-protein G beads (antibody), the Detection Limit (S/N ≥ 3) was 100 pg and 22.2 fmol [lines of one column].
